From the supplement of paper PMC10126150
Values marked as one replicate rest on one cluster of the flow cell; about a third of the high ones do not repeat.

Test system: ATP
Assay: switch fluorescence ratio, 500 uM ATP over buffer (Cy3 cluster intensity, sum of 5 cycles each) (fold (ratio)); higher = stronger signal-on switching upon ATP binding; sequences stand for … in TCGTCGGCAGCGTCAGATGTGTATAAGAGACAGTTTTTTTTTTTTTTTTTTTTTTTTT…TC
Conditions: aptamer strand: ATP DNA aptamer (quencher-CACCTGGGGGAGTATTGCGGAGGAAGG + anchor), 100 nM annealed; ATP concentration: 500 uM; one replicate
How it was run: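 Five buffer/ATP imaging cycles were run on Cy3-labelled switching-strand clusters on a modified Illumina MiSeq flow-cell, with NaOH stripping and re-annealing between cycles. In each cycle, clusters annealed to 100 nM quencher-labelled ATP aptamer were imaged in selection buffer, then after 15 min with 500 uM ATP at 22 °C. Per cluster, the fluorescence ratio is summed target-cycle over summed buffer-cycle Cy3 intensity, averaged per switch-domain sequence. Only clusters within 100-1000 RFU were kept.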
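Further: ATP exposure 15 min at 22 °C before imaging.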

Sequence: TATACTTGAT
- switch fluorescence ratio: 0.968

Sequence: TGAGAAGATG
- switch fluorescence ratio: 1.01

Sequence: GGCGCCCGTG
- switch fluorescence ratio: 0.948

Sequence: GAGTACAGGA
- switch fluorescence ratio: 1.03

Sequence: TCGGTCCGGT
- switch fluorescence ratio: 0.955

Sequence: TACAGGGATG
- switch fluorescence ratio: 0.993

Sequence: CCTTTGGACT
- switch fluorescence ratio: 1.01

Sequence: TCAAAGAGGC
- switch fluorescence ratio: 1.06

Sequence: TGACTCGGGG
- switch fluorescence ratio: 0.969

Sequence: AGCTACTGTT
- switch fluorescence ratio: 1.05

Sequence: GGGTCGTTGC
- switch fluorescence ratio: 0.979

Sequence: TCCTCTAAAT
- switch fluorescence ratio: 1.28

Sequence: AGGGTGTTGT
- switch fluorescence ratio: 0.99

Sequence: GCCGACTCT
- switch fluorescence ratio: 1.04

Sequence: GGCCGGCGGT
- switch fluorescence ratio: 1.01

Sequence: TACTGTATGC
- switch fluorescence ratio: 1.12

Sequence: GTTTATAC
- switch fluorescence ratio: 1.07

Sequence: AACTCATGGA
- switch fluorescence ratio: 0.995

Sequence: CGTGTCGGGG
- switch fluorescence ratio: 1.02

Sequence: GGTCCCCGGG
- switch fluorescence ratio: 1.16

Sequence: ACGGGCCGAC
- switch fluorescence ratio: 1.15

Sequence: CCGAGAAAGA
- switch fluorescence ratio: 1.88

Sequence: GGTCGCATA
- switch fluorescence ratio: 0.974

Sequence: AGCGCTCAAA
- switch fluorescence ratio: 0.985

Sequence: GCGTGCATAT
- switch fluorescence ratio: 0.99

Sequence: TTTAGACATT
- switch fluorescence ratio: 0.996

Sequence: AAGCCCAGTC
- switch fluorescence ratio: 1.11

Sequence: GCTTCCGTAT
- switch fluorescence ratio: 1.18

Sequence: ACCAGCTGTA
- switch fluorescence ratio: 0.996

Sequence: CAGCTCCGCG
- switch fluorescence ratio: 1.19

Sequence: TGGAATCCAG
- switch fluorescence ratio: 0.981

Sequence: TAGTAGTTTG
- switch fluorescence ratio: 0.999

Sequence: CACATGCCTG
- switch fluorescence ratio: 1.01

Sequence: AGGGCGCTAA
- switch fluorescence ratio: 1.02

Sequence: CTCTGATAAA
- switch fluorescence ratio: 1.04

Sequence: CCGTGTTAAC
- switch fluorescence ratio: 1.23

Sequence: TTACGAATAA
- switch fluorescence ratio: 1.04

Sequence: GTCGGTGGAT
- switch fluorescence ratio: 0.974

Sequence: GTAAACGTGC
- switch fluorescence ratio: 1

Sequence: GACTGCAGAA
- switch fluorescence ratio: 1.08

Sequence: CTTACTGTCA
- switch fluorescence ratio: 1.07

Sequence: GTTCAATAAT
- switch fluorescence ratio: 1.02

Sequence: ATTGGCTGCA
- switch fluorescence ratio: 1.07

Sequence: CATAATTTGA
- switch fluorescence ratio: 0.978

Sequence: TATGGTGCAA
- switch fluorescence ratio: 1.02

Sequence: ACCCCTACTA
- switch fluorescence ratio: 1.23

Sequence: TGTCACAAGT
- switch fluorescence ratio: 0.984

Sequence: GAGAGACTTT
- switch fluorescence ratio: 1.02

Sequence: GGGTGCTCTG
- switch fluorescence ratio: 0.987

Sequence: ACTCTAATGG
- switch fluorescence ratio: 1.06

Sequence: TCGGATGGGT
- switch fluorescence ratio: 0.977

Sequence: GAAAGTATAC
- switch fluorescence ratio: 1.94

Sequence: TTGTCGGATG
- switch fluorescence ratio: 1

Sequence: GACAATGAAC
- switch fluorescence ratio: 1.1

Sequence: AAAGGACGCT
- switch fluorescence ratio: 1.03

Sequence: GTTTTGGTCT
- switch fluorescence ratio: 1

Sequence: AGGCCCCGGT
- switch fluorescence ratio: 1.06

Sequence: GCCCGCCGCG
- switch fluorescence ratio: 1.45

Sequence: TGCCTAGTCC
- switch fluorescence ratio: 1.01

Sequence: AGGACCAGTC
- switch fluorescence ratio: 1.05

Sequence: GGGTGTGTAG
- switch fluorescence ratio: 1.05

Sequence: CGGACAGTGT
- switch fluorescence ratio: 0.998

Sequence: GTCATTTCTA
- switch fluorescence ratio: 0.981

Sequence: AGTAGGTGT
- switch fluorescence ratio: 1.15

Sequence: AATGGGTAAT
- switch fluorescence ratio: 0.986

Sequence: CAATAATTGC
- switch fluorescence ratio: 1.03

Sequence: GTTAAATAAA
- switch fluorescence ratio: 1

Sequence: ATGGTGGGAT
- switch fluorescence ratio: 0.976

Sequence: CAATATCTCT
- switch fluorescence ratio: 1.05

Sequence: GTCAGGATTA
- switch fluorescence ratio: 1.02

Sequence: AGCACGGGCT
- switch fluorescence ratio: 0.953

Sequence: ATGCATTGAA
- switch fluorescence ratio: 0.981

Sequence: TTGGAGTGCA
- switch fluorescence ratio: 0.961

Sequence: CCCATCTCTT
- switch fluorescence ratio: 1.04

Sequence: TTTCAAAAAG
- switch fluorescence ratio: 1

Sequence: ATGCCTGAG
- switch fluorescence ratio: 1.07

Sequence: GCCTACCGCA
- switch fluorescence ratio: 2.25

Sequence: CTCGGCCTGG
- switch fluorescence ratio: 1.01

Sequence: ATTTTACGT
- switch fluorescence ratio: 1.02

Sequence: CGGAATGCTT
- switch fluorescence ratio: 1.14

Sequence: AATGGCATC
- switch fluorescence ratio: 1.05

Sequence: CTCCCAGTGT
- switch fluorescence ratio: 5.19

Sequence: GAATAAGGCG
- switch fluorescence ratio: 1.05

Sequence: GACAAAGCGC
- switch fluorescence ratio: 1.04

Sequence: CGGTGGGCGT
- switch fluorescence ratio: 1.02

Sequence: ATCACTAGAC
- switch fluorescence ratio: 1.08

Sequence: GAGCCTCCCT
- switch fluorescence ratio: 1.14

Sequence: GTGAATGGG
- switch fluorescence ratio: 0.962

Sequence: GTCGTCAAGC
- switch fluorescence ratio: 1.02

Sequence: GCCAGCACGG
- switch fluorescence ratio: 1

Sequence: CTTAGAAAAT
- switch fluorescence ratio: 0.958

Sequence: CGGGGAGGTT
- switch fluorescence ratio: 0.979

Sequence: TCAAGTCAGG
- switch fluorescence ratio: 1.05

Sequence: CCAACTCTGG
- switch fluorescence ratio: 1.06

Sequence: CATGAACTCT
- switch fluorescence ratio: 1

Sequence: CCGATCACCG
- switch fluorescence ratio: 1.24

Sequence: TGGTCATAA
- switch fluorescence ratio: 1.03

Sequence: GTGCGCGACC
- switch fluorescence ratio: 1.11

Sequence: AACGTCGGAG
- switch fluorescence ratio: 1.01

Sequence: ATGAAGTTTA
- switch fluorescence ratio: 0.994

Sequence: TCAGAAAATT
- switch fluorescence ratio: 1.01

Sequence: CAATAGATG
- switch fluorescence ratio: 0.982

Sequence: GACGGTATAT
- switch fluorescence ratio: 1.22

Sequence: AATTGGTTTG
- switch fluorescence ratio: 0.957

Sequence: AAGAGTAGCA
- switch fluorescence ratio: 0.972

Sequence: GAAATTAAAA
- switch fluorescence ratio: 0.938

Sequence: CGTGATCGCC
- switch fluorescence ratio: 0.97

Sequence: GAAGTCCGAA
- switch fluorescence ratio: 0.976

Sequence: AGAGCAGGCT
- switch fluorescence ratio: 0.891

Sequence: ATTTCGGTAT
- switch fluorescence ratio: 1.02

Sequence: CGGATTGGAA
- switch fluorescence ratio: 1.07

Sequence: GCAATTGGAT
- switch fluorescence ratio: 0.977

Sequence: GGCTTTTGG
- switch fluorescence ratio: 0.944

Sequence: GCTTTATGGC
- switch fluorescence ratio: 0.945

Sequence: ACTAGTGCGC
- switch fluorescence ratio: 1.03

Sequence: TAGCGTCGTT
- switch fluorescence ratio: 0.962

Sequence: GCAGGTAGGT
- switch fluorescence ratio: 1.01

Sequence: AACAGTTTTG
- switch fluorescence ratio: 1

Sequence: CACATCGTGC
- switch fluorescence ratio: 0.999

Sequence: AACCTAATAG
- switch fluorescence ratio: 1.02

Sequence: ATGACGTGGT
- switch fluorescence ratio: 1

Sequence: GTAACCGGTC
- switch fluorescence ratio: 1.11

Sequence: GTGTTCATGA
- switch fluorescence ratio: 0.955

Sequence: CGAATCCGAG
- switch fluorescence ratio: 1.01

Sequence: CGGGGGGAG
- switch fluorescence ratio: 0.979

Sequence: CTTAGACCAC
- switch fluorescence ratio: 0.973

Sequence: CTGTCCTTCA
- switch fluorescence ratio: 1.02

Sequence: CGAATATATA
- switch fluorescence ratio: 0.973

Sequence: TTTTAAG
- switch fluorescence ratio: 0.973

Sequence: AAAGACTACT
- switch fluorescence ratio: 1.03

Sequence: CTGGGCTGC
- switch fluorescence ratio: 1.04

Sequence: ACTAATCTTG
- switch fluorescence ratio: 1.04

Sequence: GAAGTCAGCT
- switch fluorescence ratio: 0.99

Sequence: TTAGCCTTGA
- switch fluorescence ratio: 1.04

Sequence: GTGTTGACGG
- switch fluorescence ratio: 0.969

Sequence: TTTTCGTACC
- switch fluorescence ratio: 1.08

Sequence: AACCGCTGCT
- switch fluorescence ratio: 1.29

Sequence: TCTGCACTAA
- switch fluorescence ratio: 1.6

Sequence: TAAACCGAGT
- switch fluorescence ratio: 1.19

Sequence: AATCTGCTCA
- switch fluorescence ratio: 1.01

Sequence: TCATATTGTA
- switch fluorescence ratio: 1

Sequence: TCCATTCCAG
- switch fluorescence ratio: 0.981

Sequence: GAGTTATAC
- switch fluorescence ratio: 0.975

Sequence: CGCTTGGG
- switch fluorescence ratio: 1

Sequence: TGAGAGCAGA
- switch fluorescence ratio: 0.993

Sequence: TCCAAGGTTT
- switch fluorescence ratio: 1.06

Sequence: CATCTAAACT
- switch fluorescence ratio: 1.05

Sequence: CGAACAGACT
- switch fluorescence ratio: 1.02

Sequence: GCTACCCGGT
- switch fluorescence ratio: 1.14

Sequence: ATTCGACGTG
- switch fluorescence ratio: 0.967

Sequence: GTAGCGCTTG
- switch fluorescence ratio: 1.02

Sequence: CGCCTGATTT
- switch fluorescence ratio: 1

Sequence: ACGACCTTGG
- switch fluorescence ratio: 1.01

Sequence: GGTTGAATTC
- switch fluorescence ratio: 0.989

Sequence: ACAAGACTAT
- switch fluorescence ratio: 1.13

Sequence: AATCGTCCAA
- switch fluorescence ratio: 1.05

Sequence: CCGATGAACT
- switch fluorescence ratio: 1.49
